Read-outs that look alike come from different tables or passages of the source.
Experiments:
30 protein targets [1] = assay: Panel of 30 diverse targets (summary); conditions: 3 μM
30 protein targets [2] = tested on: 30 protein targets

O=C(C1CC1)N1CCN(Cn2sc3ccccc3c2=O)CC1 [LOC14]
binding or inhibition in panel of 30 targets (30 protein targets [1]): did not bind to any of the 30 protein targets
binding or inhibition in panel of 30 targets (30 protein targets [2]): no binding or inhibition to any other targets
